PubChem BioAssay AID1768 (National Center for Advancing Translational Sciences (NCATS), 2009)
Among all 270,000 compounds or so, about 620 (0.23%) were called active. The shares of active, inactive and inconclusive entries below differ from those in the screen. The call rests on the fitted dose curve; in most records, active means well fitted inhibition curve with a large enough effect in the polarisation, with a control signal flat (not every such curve was filed as active); inconclusive means small, poorly fitted or top-dose-only effect, or effect the other way, or a change in a side signal; inactive means no such curve, though single readings can be large or run the other way; the % refers to the polarisation. Potencies of inconclusive entries are doubtful fits and often do not repeat. “Side channel” marks fits to a control or component signal instead of the main read-out.

molecular target: Menin (Homo sapiens) (UniProt O00255); experiment: qHTS Assay for Inhibitors Targeting the Menin-MLL Interaction in MLL Related Leukemias: Competition With Texas Red Labeled MLL-derived Mutant Peptide; details: fluorescence polarization; series mostly up to 61.6 µM
Potency means the concentration at half of the fitted maximal effect; tags describe the fitted curve by direction and shape or compound fluorescence and quenching.

Sequence of UniProt O00255 (O00255 whole entry, looked up): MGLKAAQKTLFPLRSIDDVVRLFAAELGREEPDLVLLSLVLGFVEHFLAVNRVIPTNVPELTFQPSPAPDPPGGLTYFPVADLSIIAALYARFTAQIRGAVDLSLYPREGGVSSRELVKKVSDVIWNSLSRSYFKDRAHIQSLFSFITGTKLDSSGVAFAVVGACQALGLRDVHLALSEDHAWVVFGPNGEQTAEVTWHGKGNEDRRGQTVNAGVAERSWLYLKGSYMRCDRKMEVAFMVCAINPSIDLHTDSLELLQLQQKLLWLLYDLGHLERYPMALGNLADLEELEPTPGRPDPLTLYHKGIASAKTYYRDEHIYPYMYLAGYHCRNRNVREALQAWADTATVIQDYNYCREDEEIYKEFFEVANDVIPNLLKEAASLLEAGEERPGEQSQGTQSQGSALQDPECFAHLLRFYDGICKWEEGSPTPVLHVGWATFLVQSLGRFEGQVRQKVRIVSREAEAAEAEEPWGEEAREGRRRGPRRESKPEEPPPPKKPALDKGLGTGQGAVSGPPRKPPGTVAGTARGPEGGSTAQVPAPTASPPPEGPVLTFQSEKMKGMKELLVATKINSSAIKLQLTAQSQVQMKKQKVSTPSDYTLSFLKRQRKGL

Potency, inconclusive:
CN1C=CC=C/C1=C1/SC(=S)N(Cc2ccccc2)C1=O 25.1 µM [quencher, side channel, single point]
Nc1ccc(-c2nc3cc(N)ccc3s2)cc1 28.2 µM [quencher, side channel, partial curve]
COC(=O)C1(C)C=CC2(CCCCC2)N1C(C)=O (stereo not drawn) 7.08 µM [inhibitor, partial curve]
O=C(Nc1cccc(NC(=O)c2ccc(-c3ccc(Br)cc3)o2)c1)c1ccco1 31.6 µM [inhibitor, single point]
COc1cc(C(=O)NC(=S)NCc2ccco2)cc(OC)c1OC 0.631 µM [inhibitor, partial curve, poor fit]
COc1ccc(N(CC(=O)NCc2ccccc2C)S(=O)(=O)c2ccc(C)cc2)cc1OC 22.4 µM [inhibitor, single point]
O=C(COc1ccccc1)NCC(=O)N/N=C/C=C/c1ccccc1 17.8 µM [inhibitor, single point]
CCn1c(CC(=O)Nc2ccccc2)nnc1SCC(=O)Nc1ccccc1C(=O)OC 39.8 µM [fluorescent, side channel, single point]
Oc1ccc(Nc2nc(-c3ccccc3F)nc3ccccc23)cc1 22.4 µM [quencher, side channel, partial curve]
COc1cc(CN2CCN(Cc3ccco3)CC2)cc(OC)c1 31.6 µM [inhibitor, single point]
COc1cccc(Nc2ncnc3c2cnn3-c2cccc(C)c2)c1 11.2 µM [quencher, side channel, partial curve]
COC(=O)c1ccc(N=NNc2cccc(Br)c2)cc1 39.8 µM [quencher, side channel, single point]
O=S(=O)(c1ccccc1)c1nc(-c2ccco2)oc1NCCCN1CCOCC1 25.1 µM [inhibitor, partial curve]
Cc1cc(=O)n2c(C(=O)Nc3ccc(C(=O)OC(C)C)cc3)c(C(=O)Nc3ccccc3)sc2n1 39.8 µM [fluorescent, side channel, single point]
O=C(Nc1ccc(C(F)(F)F)cc1)C1CC(=O)N(c2ccc3c(c2)OCCO3)C1 (stereo not drawn) 39.8 µM [inhibitor, single point]
COC(=O)c1ccc(Cn2nc(-c3ccc(C)c(C)c3)ccc2=O)cc1 31.6 µM [inhibitor, single point]
CN(C)S(=O)(=O)c1cccc(C(=O)Nc2cc3c(cc2C(=O)O)OCCCO3)c1 11.2 µM [quencher, side channel, partial curve, poor fit]
NS(=O)(=O)c1cccc(NC(=O)c2cccc3c(Br)cccc23)c1 39.8 µM [fluorescent, single point]
Cc1cc(-c2ccc(N=Nc3c(S(=O)(=O)O)cc4cc(S(=O)(=O)O)cc(N)c4c3O)c(C)c2)ccc1N=Nc1c(S(=O)(=O)O)cc2cc(S(=O)(=O)O)cc(N)c2c1O 1.26 µM [fluorescent, side channel, full curve]
Cc1cnc(C(=O)OC(C(=O)Nc2cc(C(F)(F)F)ccc2Cl)c2ccccc2)cn1 (stereo not drawn) 1.26 µM [quencher, side channel, full curve]
Cc1cc(NC(=S)N(Cc2ccc(Br)cc2)Cc2ccc(C(=O)O)cc2)ccc1Cl 11.2 µM [quencher, side channel, partial curve]
Cc1ccc(NC(=O)CCS(=O)(=O)c2ccc3nc(C)sc3c2)cc1 35.5 µM [inhibitor, single point]
O=C(CCCSc1nc(-c2ccco2)cc(C(F)(F)F)n1)Nc1ccc2c(c1)OCO2 28.2 µM [quencher, side channel, partial curve]
Cc1ccc(-c2nnn(CC(=O)N(Cc3ccco3)C(C(=O)NC(C)(C)C)c3ccc(C)o3)n2)o1 (stereo not drawn) 11.2 µM [inhibitor, partial curve]
CCCCC1(C)NC(=O)c2c(C)sc(C(=O)OCC)c2N1 (stereo not drawn) 10 µM [fluorescent, side channel, partial curve]
C/C(=N/NS(=O)(=O)c1ccc(C)cc1)c1c[nH]c2ccccc12 28.2 µM [quencher, side channel, single point]
CCCc1cc(C(=O)N2CCN(C(c3ccccc3)c3ccccc3)CC2)no1 3.98 µM [inhibitor, partial curve]
COc1cc(C(=O)OCC(=O)N(C)C)cc(NC(=O)c2ccco2)c1OC 3.98 µM [inhibitor, single point]
C/C(=N/NC(=O)c1ccco1)c1cccc(NC(=O)c2ccc(C)o2)c1 17.8 µM [inhibitor, partial curve]
CC(C)CCNC(=O)c1cc(S(=O)(=O)N2CCc3ccccc32)cn1C 35.5 µM [fluorescent, side channel, single point]
COc1cc(C(=S)N2CCOCC2)ccc1OS(=O)(=O)c1ccccc1[N+](=O)[O-] 11.2 µM [quencher, side channel, partial curve]
COc1cc(NS(=O)(=O)c2ccc(NC(=O)c3ccc(S(=O)(=O)N4CCCCC4)cc3)cc2)ncn1 12.6 µM [quencher, side channel, partial curve]
N#CC(C#N)=c1ccc2c(c1)NC1(CCCCC1)N=2 35.5 µM [fluorescent, side channel, single point]
NC1=NN(c2cccc(C(=O)O)c2)C(=O)C1 35.5 µM [quencher, side channel, single point]
COc1ccc(Cl)cc1NC(=S)NCCc1ccc(F)cc1 14.1 µM [quencher, side channel, partial curve]
CC(=O)Nc1ccc(S(=O)(=O)Nc2cc(C)c(-n3nc4ccccc4n3)cc2O)cc1 15.8 µM [quencher, side channel, partial curve]
Cc1cc2ccccn2c1C(=O)c1ccc(NN)c([N+](=O)[O-])c1 31.6 µM [quencher, side channel, single point]
O=C(N/N=C/c1cccc2ccccc12)c1n[nH]c2c1CCCC2 8.91 µM [inhibitor, full curve, poor fit]
COC(=O)c1ccccc1NCc1cc(=O)oc2cc(O)c(O)cc12 8.91 µM [quencher, side channel, full curve]
Cc1cccc(NC(=O)c2ccc(-c3ccccc3[N+](=O)[O-])o2)c1 7.94 µM [quencher, side channel, partial curve]
COC(=O)/C=C1\S/C(=N/N=C/c2ccccc2)NC1=O 25.1 µM [quencher, side channel, partial curve]
O=[N+]([O-])c1ccc2[nH]cc(S(=O)(=O)N3CCN(c4cccc(Cl)c4)CC3)c2c1 3.55 µM [quencher, side channel, full curve]
O=C(NC(NC(=S)Nc1cccc(C(=O)O)c1)C(Cl)(Cl)Cl)OCc1ccccc1 (stereo not drawn) 28.2 µM [quencher, side channel, single point]
COc1ccc(CC(=O)NC(c2ccccc2)c2ccc(C)cc2)c(OC)c1 (stereo not drawn) 11.2 µM [fluorescent, side channel, partial curve]
COc1ccc(S(=O)(=O)Nc2cc(OC)cc3cccnc23)cc1 22.4 µM [quencher, side channel, partial curve]
CCOc1ccccc1-c1nc(C(N)=O)c2[nH]c(=O)n(-c3ccccc3)c2n1 11.2 µM [inhibitor, partial curve]
O=C(O)c1cccc(NC(=O)c2cn(-c3ccccc3)nc2-c2cccc(Br)c2)c1 12.6 µM [quencher, side channel, partial curve]

Potency, inactive:
C/C(=N\NC(=O)c1c[nH]c2ccccc12)c1ccccn1
CC(=O)OCC[n+]1c(C)n(-c2ccccc2)c2ccc(Cl)cc21
C#CCn1cc(/C=N/NC(=O)COc2cccc3cccnc23)c2ccccc21
CC(C)c1cccc2nc3c(c([Si](C)(C)C)c12)Cn1c-3cccc1=O
O=C(O)c1nn(-c2ccccc2)nc1-c1nn(-c2ccccc2)nc1C(=O)O
O=C(OCC(=O)N1CCOCC1)c1cccc(F)c1
CC(C)n1c(=S)[nH]c2c1c(=O)[nH]c(=O)n2C
Cn1c(N)c(C(=O)COC(=O)CNS(=O)(=O)c2ccc(Cl)c(Cl)c2)c(=O)n(C)c1=O
CCNC(=S)N1CCN(c2ccccn2)CC1
CCCCC/C=C\C\C=C/C=C/C=C/[C@@H](SCC(N)C(=O)NCC(=O)O)[C@@H](O)CCCC(=O)O (stereo partly drawn)
CC1(C)Cc2c(C#N)c(NCc3ccco3)nc(-c3ccco3)c2CO1
